# Assay results as given in paper PMC4336329 (PLoS ONE, 2015).
# Hit rate of the full screen: of about 310,000 compounds, about 2,200 (0.71%) showed an effect of 50% or more. Effects have a minus sign here. The list shows a part of the results.
# Biological target: human ether-à-go-go-related gene (hERG) potassium channel (human, UniProt Q12809)
# Experiment: primary screen, population patch clamp on CHO cells stably expressing hERG
# human ether-à-go-go-related gene (hERG) potassium channel, sequence (Q12809 whole entry, looked up): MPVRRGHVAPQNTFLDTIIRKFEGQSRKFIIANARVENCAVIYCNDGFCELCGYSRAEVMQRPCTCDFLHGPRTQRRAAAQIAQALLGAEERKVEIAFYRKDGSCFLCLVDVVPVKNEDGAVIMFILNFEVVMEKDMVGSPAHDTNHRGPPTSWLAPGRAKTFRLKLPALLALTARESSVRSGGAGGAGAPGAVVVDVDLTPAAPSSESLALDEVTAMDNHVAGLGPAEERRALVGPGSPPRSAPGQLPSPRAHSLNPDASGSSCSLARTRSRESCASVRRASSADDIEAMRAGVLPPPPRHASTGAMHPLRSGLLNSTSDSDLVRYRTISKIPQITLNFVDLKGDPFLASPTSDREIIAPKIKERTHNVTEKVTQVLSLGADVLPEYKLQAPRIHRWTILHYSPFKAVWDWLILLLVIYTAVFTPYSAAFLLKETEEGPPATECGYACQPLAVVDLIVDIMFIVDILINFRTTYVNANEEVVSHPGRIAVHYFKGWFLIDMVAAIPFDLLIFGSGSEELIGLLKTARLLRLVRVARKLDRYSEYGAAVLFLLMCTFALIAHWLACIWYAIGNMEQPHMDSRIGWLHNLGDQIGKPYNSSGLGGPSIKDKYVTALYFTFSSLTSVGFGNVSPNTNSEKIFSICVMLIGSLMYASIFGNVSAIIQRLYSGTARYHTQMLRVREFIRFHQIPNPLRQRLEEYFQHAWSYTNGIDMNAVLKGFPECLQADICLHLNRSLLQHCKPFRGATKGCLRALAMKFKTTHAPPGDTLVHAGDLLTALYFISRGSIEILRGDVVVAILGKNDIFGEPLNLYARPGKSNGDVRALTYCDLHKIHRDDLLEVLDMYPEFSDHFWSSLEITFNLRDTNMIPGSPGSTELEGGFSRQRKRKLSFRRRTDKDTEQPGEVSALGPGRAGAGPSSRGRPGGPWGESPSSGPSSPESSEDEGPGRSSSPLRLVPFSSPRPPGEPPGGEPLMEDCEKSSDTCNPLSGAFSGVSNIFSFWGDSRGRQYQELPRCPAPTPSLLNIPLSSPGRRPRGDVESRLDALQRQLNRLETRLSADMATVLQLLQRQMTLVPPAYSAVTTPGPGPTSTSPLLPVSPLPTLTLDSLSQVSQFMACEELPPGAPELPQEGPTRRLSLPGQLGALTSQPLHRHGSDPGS
row,SMILES,"hERG current change (%, negative = inhibition) at 1uM [%]"
1,O=C(NCC1CCCO1)c1cc(C(=O)C2CC2)c[nH]1 (stereo not drawn),2.6
2,CCSc1nnc(NC(=O)CSc2nc3c(c(=O)n2CCOC)SC(C)C3)s1 (stereo not drawn),0.21
3,Cc1nnc(SCC(=O)c2ccc([N+](=O)[O-])cc2)s1,-0.0441
4,COc1cc(C2C(Oc3ccccc3C)C(=O)N2Cc2ccc(F)cc2)cc(OC)c1OC (stereo not drawn),7.35
5,CC(=O)NCCOc1cccc2cccnc12,13.9
6,CC(C)(C)SCCNC(=O)/C=C/c1ccccc1,3.04
7,COc1ccc(C(CC(=O)N2CCN(C)CC2)NC(=O)C(F)(F)F)cc1 (stereo not drawn),12.7
8,CC(C)N=C(N)N=C(N)Nc1ccc(Cl)cc1.Cl,7.28
9,CNCCOc1ccccc1OC(C)C.O=C(O)C(=O)O,14
10,CN(C)c1ccc(C(=O)N/N=C/C23CC[C@@H](O)CC2(O)CC[C@@H]2[C@@H]3CCC3(C)C(C4=CC(=O)OC4)CCC23O)cc1 (stereo partly drawn),10.8
11,O=C(COC(=O)c1cc(-c2cccc(Br)c2)nc2ccccc12)NCC1CCCO1 (stereo not drawn),15.4
12,N#C/C(=C(/O)c1ccc([N+](=O)[O-])o1)c1nc2ccccc2[nH]1,13.3
13,Cc1cccc(N(CC(O)CN2CCOCC2)S(=O)(=O)c2ccccc2)c1 (stereo not drawn),11.2
14,COc1cc(S(=O)(=O)NCCOC23CC4CC(CC(C4)C2)C3)c(OC)cc1Cl,12.3
15,Cc1cc(S(=O)(=O)N2CCC3(CC2)OCCN3S(=O)(=O)c2cccs2)ccc1F,-5.99
16,COc1ccccc1NC(=O)N(Cc1cc2cc(OC)c(OC)cc2[nH]c1=O)CC1CCCO1 (stereo not drawn),7.64
17,COc1ccc(C(=O)Nc2ccccc2C(=O)Nc2ccc(C(=O)O)cc2)cc1,15
18,O=C(NC1CC1)C1CCN(C2CCN(C(=O)/C=C/c3cccc(F)c3F)CC2)CC1,6.42
19,CC(C)(C)OC(=O)N1CCN(C(=O)c2cccnc2Cl)CC1,14.2
20,Cc1cc(C)nc(N/N=C/c2ccc3c(c2)OCCO3)n1,14.9
21,CC(C)NC(=O)CC(=O)NN=C1CCCCC1,9.96
22,N/C(COc1ccc(F)cc1)=N\NC(=O)c1cccnc1Oc1ccccc1,-14.1
23,CCC1(C)Cc2ccccc2-c2nc3n(c(=O)c21)CCS3 (stereo not drawn),12

row,SMILES,"hERG current change (%, negative = inhibition) at 1uM [%]"
1,CCCCCc1cc(=O)oc2c(C(CCN(CC)CC)c3cc(OC)c(OC)c(OC)c3)c(OC)cc(OC)c12 (stereo not drawn),5.72
2,CCN(c1ccccc1)S(=O)(=O)c1ccc(C(=O)Nc2nnc(COC)o2)cc1,10.7
3,COc1ccccc1CNC(=O)COn1nnc2ccc(S(=O)(=O)N3CCOCC3)cc21,15.8
4,COc1ccc(NC(=S)N2CCN(c3ccccn3)CC2)cc1,3.66
5,Cc1cc(C)n(C(=O)CCCn2cc([N+](=O)[O-])cn2)n1,-3.73
6,O=C(O)CSc1nnc(CNc2cccc(C(F)(F)F)c2)n1Cc1ccco1,9.85
7,Cc1cc(C=O)c2c(c1)C=CC1(Oc3ccccc3C(=O)N1C)O2 (stereo not drawn),9.99
8,O=C(CN1C(=O)C2C3C=CC(C3)C2C1=O)Nc1ccc(F)cc1 (stereo not drawn),11.2
9,C/C(CC(=O)Nc1ccc(F)cc1)=N\NC(=O)Cc1csc(N)n1,16.1
10,O=C(NN1C(=O)C2C(C1=O)C1C=CC2C12CC2)c1cccnc1 (stereo not drawn),17.2
11,O=C(Nc1ccc(Cl)c(Cl)c1)c1ccc(Cl)c(Cl)c1,-4.94
12,O=C(Cc1cccs1)NCc1cc(Cl)cc(Cl)c1,8.81
13,O=C(Nc1cccc2ccccc12)/C(Cl)=C/c1ccccc1,3.37
14,CN(C)S(=O)(=O)c1ccc(N2CCOCC2)c(C(=O)O)c1,6.17
15,COc1ccc(-n2cnnc2SCC(=O)Nc2cc(S(=O)(=O)N3CCCCC3)ccc2C)cc1,-11
16,CC(C)C(=O)Nc1ccc(NC(=O)c2ccc(COc3ccccc3)cc2)cc1,13
17,CCCC(=O)Nc1nc2ccc(OCC)cc2s1,10.6
18,O=C(CN1C(=O)NC2(CCCCCC2)C1=O)N1CCN(S(=O)(=O)c2ccc(Cl)cc2)CC1,0.438
19,O=C(Nc1ccccc1N1CCCC1)C1=COCCO1,4.82
20,C/C(=N\NC(=O)CCCCCNC(=O)c1ccccc1)c1ccccc1O,4.55
21,COc1ccc(-c2ccc(OC)c([C@H]3[C@H]4C=CC[C@@H](C)[C@@H]4C(=O)N3Cc3ccccc3)c2)cc1C,12.6
22,CCOc1cc(S(=O)(=O)NCc2ccc3c(c2)OCO3)c(C)cc1C,13.8
